In the supplement of paper PMC11865577:

Legend:
Assay in all cases: pull-down binding Z-score (relative to library population); higher = stronger binding
[1] = tested on: G-clamp-N3 (biotin conjugate); details: RNA library: Library-1 (pre-miRNA loops + repeats)
How it was run: (§1)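 Streptavidin beads with 100 pmol of biotin-conjugated small molecule were incubated for 60 min at 25 °C with 1 μg of heat-folded Cy5- or Cy3-end-labelled RNA library in phosphate/NaCl/KCl buffer. Bound RNA was eluted in hot SDS after three washes and hybridised to a DNA barcode microarray at 55.5 °C for 20 h. Each binding score is a library-referenced Z-score, computed after beads-only subtraction and a trimmed mean of barcoded replicate probes.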

[2] = tested on: TO-N3-2 (biotin conjugate); details: RNA library: Library-2
How it was run: as §1

TO-N3 (biotin conjugate) = details: RNA library: Library-2
How it was run: as §1

[3] = tested on: TO-3-N3-2 (biotin conjugate); details: RNA library: Library-2
How it was run: as §1

[4] = tested on: TO-3-N3 (biotin conjugate); details: RNA library: Library-2
How it was run: as §1

| Sequence | pull-down binding Z-score [1] | other results |
| --- | --- | --- |
| AUUGCACUCC [U1A] | -1.23 |  |
| GGGUGGGUGGGUGGGUGGGUGGGU [G4_(GGGU)6] | 2.56 |  |
| GGGUGGGUGGGUGGGUGGGUGGGUGGGUGGGU [G4_(GGGU)8] | 2.08 |  |
| GGGUUGGGUUGGGUUGGGUUGGGUUGGGUU [G4_(GGGUU)6] | 2.27 |  |
| GGGUUGGGUUGGGUUGGGUUGGGUUGGGUUGGGUUGGGUU [G4_(GGGUU)8] | 0.567 |  |
| GGGUUUAAUUACGAAAGUAAUUGGAUCC [Disney2016_Control_RNAC] | 0.674 |  |
| GGGUUUACGAACGAAAGUUGGUGGAUCC [Disney2016_Control_RNA2] | 0.361 |  |
| GGGUUUACGAUUUACGAAAGUAAAUUGUGGAUCC [Disney2016_Control_RNA5] | -0.323 |  |
| GGGUUUACGAUUUACGAAAGUAUAUCGUGGAUCC [Disney2016_Control_RNA4] | 0.973 |  |
| GGGUUUACGAUUUACGAAAGUAUAUGGUGGAUCC [Disney2016_Control_RNA3] | 0.7 |  |
| GGGUUUAUUUACGAAAGUAUAUGGAUCC [Disney2016_Control_RNA1] | 0.172 |  |
| UUGCCAUGUGUAUGUGGGACACCCCACAUACUUUGUUGAUCCACACGGAUCAAUCAUGGCAA [3-way model-4_mPhi29pRNA] |  | pull-down binding Z-score [2]: -1.11; pull-down binding Z-score (TO-N3 (biotin conjugate)): -1; pull-down binding Z-score [3]: -0.583; pull-down binding Z-score [4]: -0.728 |
